# From PubChem BioAssay AID2147 (National Center for Advancing Translational Sciences (NCATS), 2009)
# About 3,600 (1.6%) of roughly 230,000 compounds were called active. The shares of active, inactive and inconclusive entries below differ from those in the screen. The call rests on the fitted dose curve; in most records, active means well fitted inhibition curve with a large enough effect (not every such curve was filed as active); inconclusive means small, poorly fitted or top-dose-only effect, or another doubt; inactive means no such curve, though single readings can be large or run the other way. Potencies of inconclusive entries are doubtful fits and often do not repeat.
# Biological target: Lysine-specific demethylase 4E (Homo sapiens) (UniProt B2RXH2)
# Test: qHTS Assay for Inhibitors of Human Jumonji Domain Containing 2E (JMJD2E)
# Conditions: JMJD2E catalytic domain, FDH-coupled NADH fluorescence (FDH is formaldehyde dehydrogenase); series mostly up to 57.1 µM
# Further: nearly all actives have a fitted effect of over 50% in size.
# Potency means the concentration at half of the fitted maximal effect; tags describe the fitted curve by direction and shape.
# Chain of UniProt B2RXH2 (B2RXH2 whole entry, looked up, the tested form may be a part): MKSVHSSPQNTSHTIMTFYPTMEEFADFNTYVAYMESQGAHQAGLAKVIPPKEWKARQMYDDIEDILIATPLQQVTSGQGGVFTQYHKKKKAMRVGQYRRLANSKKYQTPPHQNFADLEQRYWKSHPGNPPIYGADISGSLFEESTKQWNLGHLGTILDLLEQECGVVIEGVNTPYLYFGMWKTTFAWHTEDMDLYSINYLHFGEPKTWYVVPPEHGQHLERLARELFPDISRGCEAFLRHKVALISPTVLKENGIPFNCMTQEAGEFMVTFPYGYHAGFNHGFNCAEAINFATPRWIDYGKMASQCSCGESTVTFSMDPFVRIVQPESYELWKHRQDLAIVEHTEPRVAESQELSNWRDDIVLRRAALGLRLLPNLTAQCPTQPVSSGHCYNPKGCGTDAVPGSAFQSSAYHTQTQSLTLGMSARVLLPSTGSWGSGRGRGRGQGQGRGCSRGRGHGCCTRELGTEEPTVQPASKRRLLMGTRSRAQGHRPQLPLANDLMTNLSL
row,SMILES,Potency
1,N=C1/C(=C/c2ccc(-c3cccc(C(=O)O)c3)o2)C(=O)N=C2SC=C(c3ccccc3)N12,"inconclusive: 39.8 µM [inhibitor, single point]"
2,CCO[C@H]1OC(C(=O)Nc2ccccc2)=C[C@@H](c2ccc(C(F)(F)F)cc2)[C@@H]1CCCO,"inconclusive: 25.1 µM [inhibitor, single point]"
3,CC(CCc1ccccc1)NC(=O)c1cc2sccc2n1C (stereo not given),"inconclusive: 17.8 µM [inhibitor, partial curve]"
4,Cc1ccc2cc(COC(=O)C3CCCO3)c(=O)[nH]c2c1 (stereo not given),"inconclusive: 39.8 µM [inhibitor, single point]"
5,O=C(Cc1cccs1)NCCc1cn2ccccc2n1,"inconclusive: 28.2 µM [inhibitor, partial curve]"
6,c1ccc2c(c1)OCC(c1csc3ncnc(N4CCOCC4)c13)O2 (stereo not given),inactive
7,Cc1ccc(-c2nn(-c3ccccc3)cc2C=C2C(=O)CC(C)(C)CC2=O)cc1,"inconclusive: 39.8 µM [inhibitor, single point]"
8,C=C(C)C(=O)OC[C@@H]1CCC[N@+]2(C)CCCCC12 (stereo not given in full),inactive
9,CCOC(=O)c1ccc(NC(c2ccc(N(C)C)cc2)P(=O)(OC(C)C)OC(C)C)cc1 (stereo not given),inactive
10,COc1ccc(S(=O)(=O)NN(C)c2nc(C(F)(F)F)nc3ccccc23)cc1,inactive
11,O=c1[nH]c2ccc(Cl)cc2c(O)c1-c1ccccc1,"inconclusive: 39.8 µM [inhibitor, single point]"
12,Clc1cc(Br)ccc1OCCn1ccnc1,"inconclusive: 14.1 µM [inhibitor, partial curve]"
13,COc1ccccc1OC(C)C(=O)Nc1nc(-c2ccc(S(=O)(=O)N3CCOCC3)cc2)cs1 (stereo not given),"inconclusive: 39.8 µM [inhibitor, single point]"
14,O=C1NC(=Nc2ccc(F)cc2)SC1Cc1ccc(F)cc1 (stereo not given),inactive
15,CCc1ccc2nc(N3C(=O)C(O)=C(C(=O)c4ccco4)C3c3cccs3)sc2c1 (stereo not given),"inconclusive: 31.6 µM [inhibitor, single point]"
16,Cc1nc2cc(-c3cccc(F)c3)nn2c(C)c1CCC(=O)NC(C)CCc1ccco1 (stereo not given),"inconclusive: 35.5 µM [inhibitor, partial curve]"
17,Brc1ccc(-c2cnc(-c3cccs3)o2)cc1,"inconclusive: 28.2 µM [inhibitor, partial curve]"
18,O=C(O)C1C(c2ccccc2)C(C(=O)Oc2ccccc2)C1c1ccccc1 (stereo not given),inactive
19,Cc1nc2c(c(=O)n1CCC1=CCCCC1)c1nc3ccccc3nc1n2/N=C/c1ccco1,"inconclusive: 25.1 µM [inhibitor, partial curve]"
20,Cc1cc(NC(=O)c2c(-c3c(Cl)cccc3Cl)noc2C)n(C)n1,inactive
21,CCOc1ccc(CNc2ccc(N3CCOCC3)c(C(=O)O)c2)cc1,"inconclusive: 39.8 µM [inhibitor, single point]"
22,C/C(CC(=O)NCc1ccco1)=N\NC(=O)C(c1ccccc1)c1ccccc1,inactive
23,Cc1cccn2c(=O)c3cc(S(=O)(=O)c4ccccc4)c(=N)n(Cc4ccco4)c3nc12,"inconclusive: 25.1 µM [inhibitor, partial curve]"
24,O=C(Cc1csc(NC(=O)c2ccc(F)cc2)n1)NO,"inconclusive: 39.8 µM [inhibitor, single point]"

row,SMILES,Potency
1,COc1ccc(S(=O)(=O)Nc2c(C(=O)O)[nH]c3ccccc23)cc1OC,"inconclusive: 25.1 µM [inhibitor, single point]"
2,CCOC(=O)c1sc2nc(CC(=O)OC)nc(N3CCN(c4ccccn4)CC3)c2c1C,"inconclusive: 39.8 µM [inhibitor, single point]"
3,Cc1ccc2cc(C(c3nnnn3C3CCCC3)N(Cc3cccnc3)Cc3ccco3)c(=O)[nH]c2c1 (stereo not given),"inconclusive: 39.8 µM [inhibitor, single point]"
4,O=C1c2ccccc2C(=O)N1CCSc1ncn[nH]1,inactive
5,CCOC(=O)c1cnc(-n2nc(C)cc2C)nc1Nc1ccccc1OC,inactive
6,COc1ccc2oc(C(=O)Nc3nc4ccccc4[nH]3)c(C)c2c1,"inconclusive: 35.5 µM [inhibitor, partial curve]"
7,O=C(Cn1cnc2c(nnn2Cc2ccccc2F)c1=O)NCc1ccco1,inactive
8,O=C(Nc1ccc(CN2CCOCC2)cc1)c1cccc(-c2cc3ccccc3oc2=O)c1,"inconclusive: 8.91 µM [inhibitor, full curve]"
9,O=C1NCCCc2nonc21,inactive
10,O=C(CN1CCN(CCN2C(=O)c3cccc4cccc(c34)C2=O)CC1)c1ccc(Cl)cc1,"inconclusive: 31.6 µM [inhibitor, partial curve]"
11,O=c1cc(CSc2nnc(COc3cccc4ccccc34)o2)c2ccccc2[nH]1,"inconclusive: 39.8 µM [inhibitor, single point]"
12,COC(=O)[C@H]1O[C@@H](c2cc(OC)c(C)c(OC)c2OCc2ccccc2)[C@H](C)[C@@H]2O[C@]12C,inactive
13,Cc1cc(/C=C(/C#N)C(=O)Nc2ccc(Cl)cc2)c(C)n1-c1cccnc1,"inconclusive: 25.1 µM [inhibitor, partial curve]"
14,O=c1c[n+]([O-])c2ccccc2n1OCc1ccccn1,"inconclusive: 17.8 µM [inhibitor, partial curve]"
15,O=C(N1CCOCC1)N1CCN(c2ccccn2)CC1,"inconclusive: 25.1 µM [inhibitor, partial curve]"
16,N=C1S/C(=C\c2ccc(-c3ccccc3C(=O)O)o2)C(=O)N1c1ccc2c(c1)OCO2,active: 5.62 µM
17,CCOC(=O)c1c(N2C(=O)CC(Sc3ccccc3C(=O)O)C2=O)sc2c1CCCC2 (stereo not given),inactive
18,Brc1ccc(CNc2cc3c(cc2Br)OCCO3)cc1,inactive
19,Cc1ccc(N(C)S(=O)(=O)c2cccc(C(=O)Nc3nnc(C4CC4)s3)c2)cc1,"inconclusive: 35.5 µM [inhibitor, single point]"
20,COc1ccc(CCN2C(=O)CC(NNc3ccc([N+](=O)[O-])cc3)C2=O)cc1OC (stereo not given),"inconclusive: 15.8 µM [inhibitor, partial curve]"
21,COCCNC(=O)c1csc2c1CCCC2,inactive
22,Cc1c(Cc2ccccc2)c(=O)n2c([nH]c3ccccc32)c1C#N,"inconclusive: 35.5 µM [inhibitor, partial curve]"
23,OC(COCc1ccco1)CN1CCN(c2ccccc2)CC1 (stereo not given),"inconclusive: 28.2 µM [inhibitor, single point]"
24,Cc1cc(C)cc(CC2CC(=O)N(c3nc(C)cc(C)n3)C2=O)c1 (stereo not given),"inconclusive: 39.8 µM [inhibitor, single point]"

row,SMILES,Potency
1,COC(=O)C1=CN(C2CC2)C=C(C(=O)OC)C1c1ccc(C(=O)OC)cc1,"inconclusive: 35.5 µM [inhibitor, partial curve]"
2,CCn1c(SCC(N)=O)nc2sc3c(c2c1=O)CCN(C)C3,"inconclusive: 5.01 µM [inhibitor, single point]"
3,Cc1cc(C)c2sc(N(CCN(C)C)C(=O)c3c(F)cccc3F)nc2c1,"inconclusive: 39.8 µM [inhibitor, single point]"
4,CCOC(=O)/C(C#N)=C/C=C1\C=Cc2ccccc2N1CC,inactive
5,Cn1cccc1/C=C1/SC(=S)N(CC(=O)O)C1=O,active: 22.4 µM
6,O=C(CNCCC1=CCCCC1)Nc1ccc(N2CCCCCC2)cc1,"inconclusive: 25.1 µM [inhibitor, single point]"
7,CCCNC(=O)CS(=O)Cc1nc(-c2ccc(OC)cc2)oc1C (stereo not given),"inconclusive: 35.5 µM [inhibitor, single point]"
8,N#CC1=C(N)Nc2nc3ccccc3n2C1c1ccc(Cl)cc1 (stereo not given),"inconclusive: 39.8 µM [inhibitor, single point]"
9,CC(=O)c1cccc(NC(=O)c2cnn3ccccc23)c1,"inconclusive: 35.5 µM [inhibitor, partial curve]"
10,O=C(NCc1ccco1)c1ccc(C(=O)NCc2ccco2)s1,inactive
11,COc1ccc2[nH]c(=O)c(CN(CC3CCCO3)C(=O)Nc3ccccc3)cc2c1 (stereo not given),"inconclusive: 22.4 µM [inhibitor, partial curve]"
12,Cc1cccc(Nc2nnc(SCC(=O)Nc3ccccc3[N+](=O)[O-])s2)c1C,inactive
13,O=C(Nc1cccc(-c2nc3ccccc3[nH]2)c1)c1ccc(C(=O)Nc2cccc(-c3nc4ccccc4[nH]3)c2)cc1,"inconclusive: 28.2 µM [inhibitor, partial curve]"
14,NC(=O)c1ncn([C@H]2O[C@@H](CO)[C@@H](O)[C@@H]2O)n1,inactive
15,CC1CC(C)CN(CC(=O)N2CCOCC2)C1 (stereo not given),"inconclusive: 39.8 µM [inhibitor, single point]"
16,O=c1c2cc(N3CCOCC3)ccc2[nH]c(=S)n1CCCN1CCCC1,"inconclusive: 28.2 µM [inhibitor, single point]"
17,COCCNC(=S)N1CCc2cc(OC)c(OC)cc2C1COc1ccc(C(C)C)cc1 (stereo not given),inactive
18,COc1ccccc1N/C(N)=N/c1nc(C(F)(F)F)cc(=O)[nH]1,"inconclusive: 25.1 µM [inhibitor, single point]"
19,COc1ccccc1NS(=O)(=O)c1cc(NC(=O)c2ccncc2)ccc1N1CCOCC1,"inconclusive: 31.6 µM [inhibitor, single point]"
20,Cc1ccc(C)c(NC(=O)CSc2nnc([C@@H]3CCCN3C(=O)OC(C)(C)C)o2)c1,inactive
21,Cc1ccc2oc(=O)cc(CN3CCN(C/C=C/c4ccccc4)CC3)c2c1,inactive
22,CCN(CC)S(=O)(=O)c1cccc(-c2nnc(SCC(=O)c3cc(C)n(C)c3C)o2)c1,"inconclusive: 39.8 µM [inhibitor, single point]"
